Test results as given in PubChem BioAssay AID1347417 (National Center for Advancing Translational Sciences (NCATS), 2020).
Hit rate of the full screen: of about 120,000 compounds, about 5,300 (4.4%) were called active. The shares of active, inactive and inconclusive entries below differ from those in the screen. The call rests on the fitted dose curve; in most records, active means well fitted inhibition curve with a large enough effect; inconclusive means small, poorly fitted or top-dose-only effect; inactive means no such curve, though single readings can be large or run the other way. Where the call is inconclusive, the potency comes from a doubtful curve fit.

Test: qHTS Primary assay for Inhibitors of Plasmodium falciparum Dd2 growth in vitro; further: nearly all actives have a fitted effect of over 65% in size
Conditions: P. falciparum Dd2 growth, SYBR Green, 72 h; series mostly up to 28.9 µM
Outline: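 Readout: SYBR Green fluorescence, 485 nm excitation, 535 nm emission, after ~16 h lysis at 37C. Before that, Dd2-infected red cells (2.5% hematocrit) grew 72 h with compound, 29 uM top final concentration.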
Potency means the concentration at half of the fitted maximal effect; tags describe the fitted curve by direction and shape.

SMILES	Potency
CCCCS(=O)(=O)c1oc(-c2cccs2)nc1S(=O)(=O)c1ccccc1	active: 10 µM
COc1cc2nc(NCCC(C)C)n3nc(-c4ccccc4)nc3c2cc1OC	inconclusive: 0.112 µM [inhibitor, full curve, poor fit]
O=C(Nc1ccccc1F)NC1CCN(C(=O)N2CC3CC(C2)[C@H]2CCCC(=O)N2C3)CC1 (stereo not given in full)	inactive
Clc1ccc(-c2cnc([C@@H]3COCCN3)[nH]2)cc1	inconclusive: 20 µM [inhibitor, partial curve, poor fit]
COc1cccc(CC(=O)NC(C)C(=O)N2CCN(c3ccccn3)CC2)c1 (stereo not given)	inactive
Cc1ccc(CNC(=O)N2CCCC(Cn3cnc4cccnc43)C2)cc1 (stereo not given)	inconclusive: 10 µM [inhibitor, single point]
CCc1noc(-c2cn(C3CCN(C(=O)c4cccc(OC)c4)CC3)nn2)n1	inconclusive: 1.78 µM [inhibitor, single point]
CNC(=O)CCn1ncc2cc(OCc3ccccc3-c3ccc(F)cc3C)ccc21	inconclusive: 3.16 µM [inhibitor, partial curve, poor fit]
COc1ccc(-c2nc3cc(C)ccc3cc2CN2CCCC(OC)C2)cc1 (stereo not given)	inconclusive: 17.8 µM [inhibitor, single point]
COCCN1CCCC2(CCN(C(=O)CCN(C)S(C)(=O)=O)C2)C1=O (stereo not given)	inactive
COCCN1CCC2(CCC1=O)CCN(S(=O)(=O)c1cc(C)ccc1C)CC2	inactive
Cc1ccc2nc(-c3ccccc3F)c(Nc3ccc(Cl)cc3)n2c1	inconclusive: 14.1 µM [inhibitor, single point]
COc1ccc(-c2nc(CSCC(=O)N3CCN(c4cccc(C)c4C)CC3)c(C)o2)cc1OC	active: 10 µM
COc1ccc2c(C)c(-c3nc(C4CCOC4)no3)oc2c1 (stereo not given)	inactive
CCn1nc(CC(C)C)cc1C(=O)N1CCC2(CC1)CNC(=O)O2	inactive
CN(C)C[C@@H]1CN(Cc2ccccn2)C[C@H]1NS(=O)(=O)Cc1ccccc1	inconclusive: 8.91 µM [inhibitor, partial curve, poor fit]
N#Cc1cccc(CN(Cc2cccc(C#N)c2)[C@@H]2CO[C@H](CNC(=O)c3ccccc3)[C@H]2O)c1	inconclusive: 1.78 µM [inhibitor, single point]
Cn1c(C(=O)N2CCN(c3ccccn3)CC2)cc2c1CCN(Cc1ccccc1)C2	inconclusive: 11.2 µM [inhibitor, partial curve, poor fit]
Cc1cc(C(=O)N2CCC3(CC2)CC(N2CCN(c4ccccn4)CC2)CCO3)n[nH]1 (stereo not given)	inactive
CNC(=O)[C@@H]1CN(C(=O)c2cc(C3CC3)[nH]n2)C[C@H]1c1nc(COC)no1	inactive
Cc1csc(NC(=O)[C@@H]2C[C@@H](c3cccc(C(F)(F)F)c3)N(Cc3cnn(C)c3)C2)n1	inactive
COCCOc1ccc2c(n1)CCN(C(=O)NCCC(C)C)C2	inactive
CCCC1=Nc2cc(C(=O)NC3CCCC3)ccc2Sc2ccc(C)cc21	inconclusive: 7.94 µM [inhibitor, partial curve, poor fit]

SMILES	Potency
N#Cc1cccc(NC(=O)N[C@H]2CO[C@H]3[C@@H]2OC[C@@H]3n2nnnc2Oc2ccc(-n3cncn3)cc2)c1	inconclusive: 14.1 µM [inhibitor, single point]
O=C(c1n[nH]c2c1CCCC2)N1CCc2c(nc3cc(-c4ccccc4)[nH]n3c2=O)C1	inactive
O=c1cc(-c2ccncc2)oc2c(-c3ccccc3F)nccc12	inconclusive: 11.2 µM [inhibitor, single point]
CCN(CC)CC(C)CNC(=O)c1cc(-c2ccc(Br)s2)nc2ccccc12 (stereo not given)	active: 11.2 µM
COc1cccc(CN(C(=O)c2oc3cc(C)ccc3c2C)C2CCS(=O)(=O)C2)c1 (stereo not given)	inconclusive: 17.8 µM [inhibitor, single point]
COc1ccccc1CN1CCN2C(=O)N(C3CCOCC3)C[C@H]2C1	inactive
CCCn1c(=O)sc2cc(NC(=O)COc3ccc(Cl)cc3)ccc21	inconclusive: 11.2 µM [inhibitor, partial curve]
CC1CCC(NC(=O)c2ccc3c(c2)N(Cc2cccc(Cl)c2)C(=O)c2ccccc2S3(=O)=O)CC1 (stereo not given)	active: 11.2 µM
CN(Cc1ccc(-c2ccccc2)cc1)Cc1ccccn1	inconclusive: 10 µM [inhibitor, partial curve, poor fit]
NC(=O)[C@@H]1CN(C(=O)c2cccnn2)C[C@H]1COc1ccccc1	inactive
Cc1cc2nc3n(c(=O)c2n1CC(=O)Nc1cccc(C(C)C)c1)CCCCC3	inactive
CCCCNC(=O)c1nn(-c2ccc(CC)cc2)nc1CO	inactive
CC(=O)N[C@@H]1CN(Cc2ccc(OC(C)C)cc2)C[C@H]1CO	inactive
Cc1nncn1C1CCN(S(=O)(=O)c2ccccc2)CC1	inconclusive: 2.51 µM [inhibitor, full curve, poor fit]
O=[S+]1([O-])NC2(CCN(Cc3ccc(F)cc3)CC2)CNc2ccccc21	inconclusive: 1.58 µM [inhibitor, partial curve, poor fit]
CCCCc1cc(C[C@@H]2C[C@H](NC(=O)NC(C)C)C2(C)C)no1	inactive
COc1cccc(CNC(=O)c2ccc3c(c2)c(C)c(C)n3Cc2ccccc2)c1OC	inactive
CC(C)NC(=O)C(C)[C@@H]1CC[C@@]2(C)CC[C@H](NC(=O)c3cncnc3)[C@@H](C)[C@@H]2[C@H]1O (stereo not given in full)	inactive
CC#CCn1cc2c3c(cccc31)[C@H](CC(C)C)N[C@H](C(=O)N1CCN(CCOC)CC1)C2	inconclusive: 2.51 µM [inhibitor, full curve, poor fit]
Cc1noc(-c2cccn3c(CNC(=O)c4ccoc4)nnc23)n1	inactive
CCOC(=O)c1sc2ccccc2c1S(=O)(=O)Nc1ccc(CC)cc1	inconclusive: 11.2 µM [inhibitor, partial curve]
Cc1ccc(C(C)(C)C)c(OCC(=O)Nc2ccc(Cl)cc2C(=O)c2ccccc2)c1	inconclusive: 17.8 µM [inhibitor, single point]
